Measured values reported in US20260200947A1, “FUSED CYCLIC COMPOUNDS AND USE THEREOF” (Jacobio Pharmaceuticals Co., Ltd., priority 2022, published 2026).

Compound	pIC50 (SW620 cells (K-Ras G12V))	pIC50 (AGS cells (K-Ras G12D))
C#Cc1c(F)ccc2cc(N)cc(-c3nc4c5c(nc(OCC67CC(=C)CN6C[C@H](F)C7)nc5c3F)N3CCCOC[C@H]3CO4)c12 (some centres unmarked) [Compound 13]	8.13	
C#Cc1c(F)ccc2cc(N)cc(-c3nc4c5c(nc(OC[C@@]67CCCN6C[C@H](F)C7)nc5c3F)N3CC(F)(F)COC[C@H]3CO4)c12 [Compound 19]		7.58

pIC50: −log10 of the molar value.
